# Data as given in PubChem BioAssay AID588855 (National Center for Advancing Translational Sciences (NCATS), 2011).
# Several values for one entry are separate records, joined by “and”; a condition that tells them apart may be missing. Equal values may be shown once. The campaign covered roughly 410,000 compounds. About 5,000 (1.2%) were called active. The shares of active, inactive and inconclusive entries below differ from those in the screen. Calls come from the whole dose curve; as a rule, active = well fitted inhibition curve with a large enough effect; inconclusive = small, poorly fitted or top-dose-only effect; inactive = no such curve, though single readings can be large or run the other way. A potency beside an inconclusive call is a rough fit, not a confirmed value.
# Assay: qHTS for Inhibitors of TGF-b; note: nearly all actives have a fitted effect of over 65% in size
# Details: HepG2 CAGA-GFP TGF-b/SMAD3 reporter, GFP fluorescence, 18 h, TGF-beta stimulated, 500 pg/mL final; series mostly up to 46.1 µM; activity, negative = inhibition: at the top concentration
# Procedure, shortened: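 Smad-responsive CAGA-GFP expression was quantified in HEPG2 cells exposed to compounds and 500 pg/mL final TGF-beta for 18 h at 37 degrees C; unstimulated wells defined full inhibition.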
# % is set by controls: 0 for no effect and ±100 for the full control effect; potency is the fitted concentration of half-maximal effect; tags give direction and shape of the fitted curve.
Structure (SMILES),Potency,"activity, negative = inhibition"
C=C1C(=O)O[C@@H]2C[C@@H](C)[C@@H]3C4OC4C(=O)[C@@]3(C)[C@@H](O)[C@H]12 (stereo partly drawn),active: 2.82 µM,–
CC[C@]1(C(=O)OC)[C@H]2C(=O)N(Cc3ccccc3)C(=O)[C@H]2[C@H]2CN=C(SCc3ccc(C)cc3)N21,"inconclusive: 35.5 µM [inhibitor, single point]",–
COc1ccc(C(c2nnnn2-c2ccc3c(c2)OCCO3)N2CCC3(CC2)C(=O)NCN3c2ccccc2)cc1 (stereo not drawn),"inconclusive: 10 µM [inhibitor, partial curve, poor fit]",–
COc1ccc(Cn2c(O)c(C=NCCN3CCOCC3)c(=O)[nH]c2=O)cc1,"inconclusive: 0.447 µM [inhibitor, full curve]",–
CC(/C=C(\C)Nc1ccccc1)=Nc1ccccc1,–,inactive: -17%
CC(=O)OC(C)(C)/C=C/C(=O)[C@](C)(O)[C@H]1[C@H](O)C[C@@]2(C)[C@@H]3CC=C4[C@H](C[C@H](O)C(=O)C4(C)C)[C@]3(C)C(=O)C[C@]12C,active: 2.82 µM,–
NS(=O)(=O)OC(CCc1ccccc1)C(Cl)(Cl)Cl (stereo not drawn),"inconclusive: 22.4 µM [inhibitor, single point]",–
COC(=O)C(O)(c1ccc(NC(=S)NC(=O)c2ccc(Cl)cc2Cl)c(C)c1)C(F)(F)F (stereo not drawn),"inconclusive: 20 µM [inhibitor, single point]",–
CN1C(=O)c2ccccc2Sc2ccc(NC(=O)N3CCN(c4ccccc4)CC3)cc21,"inconclusive: 7.94 µM [inhibitor, partial curve]",–
O=C1C(Cl)=CC(=Nc2ccc(O)cc2)C=C1Cl,"inconclusive: 35.5 µM [inhibitor, single point]",–
COc1ccc(-c2cc(=O)oc3c(C)c(OC(C)C(=O)N4C[C@H]5C[C@@H](C4)c4cccc(=O)n4C5)ccc23)cc1 (stereo partly drawn),"inconclusive: 17.8 µM [inhibitor, single point]",–
Cc1cc(C)n(-c2ccc(NN=C(C#N)C#N)cc2)n1,"inconclusive: 22.4 µM [inhibitor, partial curve, poor fit]",–
O=C1NCN(c2ccccc2)C12CCN(C(c1ccccc1OC(F)(F)F)c1nnnn1C1CCCC1)CC2 (stereo not drawn),–,inactive: -26.2%
COCc1cc(C2SCC(=O)Nc3c2c(=O)[nH]n3C(C)C)ccc1OC (stereo not drawn),"inconclusive: 5.62 µM [inhibitor, single point]",–
CCN(CC)C(=O)c1ccc(NC(=O)Cn2nc(-c3ccc(C)cc3)c3ccccc3c2=O)cc1,–,inactive: -10.6%
CC1N(C)c2cc(NC(=O)c3ccco3)c(P(=O)(Nc3ccc([N+](=O)[O-])cc3)N3CCOCC3)cc2C1(C)C (stereo not drawn),"inconclusive: 7.94 µM [inhibitor, partial curve, poor fit]",–
COc1ccccc1CCNC1CCCCCC1,–,inactive: 17.1%
CCc1cccc(NC(=O)C2CCN(S(=O)(=O)c3ccc(Br)s3)CC2)c1,"inconclusive: 20 µM [inhibitor, partial curve]",–
CC(C)CCOC(=O)c1c(N)n(CC2CCCO2)c2nc3ccccc3nc12 (stereo not drawn),active: 11.2 µM,–
Nc1ccc(C2(c3ccc(N)cc3)c3ccccc3-c3ccccc32)cc1,"inconclusive: 35.5 µM [inhibitor, single point]",–
Cc1cc(NC(=O)CCl)no1,"inconclusive: 14.1 µM [inhibitor, single point]",–

Structure (SMILES),Potency,"activity, negative = inhibition"
CCOc1cc2c(cc1OCC)-n1cccc1C(c1ccc(OC(F)F)cc1)NC2 (stereo not drawn),"inconclusive: 22.4 µM [inhibitor, single point]",–
COc1cc(OC)cc(C(=O)Nc2nc(-c3nnn(-c4ccc(C)cc4)c3C)ns2)c1,"inconclusive: 11.2 µM [inhibitor, single point]",–
CCOC(=O)Cn1cc([N+](=O)[O-])nc1[N+](=O)[O-],"inconclusive: 35.5 µM [inhibitor, partial curve, poor fit]",–
Cn1cccc1/C=C1/C(=O)NC(=O)N(C(C)(C)C)C1=O,–,inactive: -8.5%
O=c1[nH]c2ccccc2n1CCCN1CCC(n2c(=O)[nH]c3cc(Cl)ccc32)CC1,"inconclusive: 31.6 µM [inhibitor, single point]",–
COP(=S)(OC)Oc1ccc(SC)c(C)c1,–,inactive: 8.29%
COC(=O)C1=C(c2ccc(OC(F)(F)F)cc2)C[C@@H]2CC[C@H]1N2C(=O)N1CCCC1,"inconclusive: 12.6 µM [inhibitor, partial curve, poor fit]",–
CN1C2CCC1/C(=C/c1ccccn1)C(=O)/C2=C\c1ccccn1,active: 2.82 µM,–
Cc1ccc(NC(=O)CN2C(=O)CN=C(c3ccccc3)c3cc(Cl)ccc32)cc1,"inconclusive: 17.8 µM [inhibitor, single point]",–
CCOC(=O)c1ccccc1NC(=O)N(Cc1ccc(CC)cc1)Cc1cn[nH]c1-c1ccc(OC)cc1,"inconclusive: 15.8 µM [inhibitor, single point]",–
Cc1ccc(NC(=O)N(Cc2ccc3c(c2)OCO3)C2CCN(Cc3ccccc3)CC2)cc1Cl,–,inactive: -30.6%
Cc1ccccc1-n1c(O)c(/C=C/C=Nc2ccccc2)c(=O)[nH]c1=O,–,inactive: 164%
C[C@@H]1O[C@@H](O[C@H]2C[C@@H](O)[C@]3(CO)[C@H]4[C@H](O)C[C@]5(C)[C@@H](C6COC(=O)C6)CC[C@]5(O)[C@@H]4CC[C@]3(O)C2)[C@H](O)[C@H](O)[C@H]1O (stereo partly drawn),"inconclusive: 14.1 µM [inhibitor, partial curve, poor fit]",–
Cc1ccc2c(c1)C1CN(C)CCC1N2C(=O)CCCN1C(=O)c2cccc3cccc(c23)C1=O (stereo not drawn),"inconclusive: 11.2 µM [inhibitor, single point]",–
CC(C)[C@H]1C(=O)O[C@H](C(C)C)C(=O)N(C)[C@@H](C(C)C)C(=O)O[C@H](C(C)C)C(=O)N(C)[C@@H](C(C)C)C(=O)O[C@H](C(C)C)C(=O)N1C,active: 5.62 µM,–
CN(C)c1ccc(/C=C/c2cc[n+](C)c3ccccc23)cc1,active: 3.98 µM and active: 7.08 µM and active: 12.6 µM,–
COc1ccc(CNC(=O)c2cc3c(-c4ccccc4F)nn(C)c3s2)c(OC)c1,"inconclusive: 2 µM [inhibitor, full curve]",–
COc1ccc(Cl)cc1NC(=O)CCn1c(=O)oc2ccccc21,"inconclusive: 5.62 µM [inhibitor, single point]",–
COc1ccccc1OC(C)C(=O)N1CCC(Cc2ccccc2)CC1 (stereo not drawn),"inconclusive: 20 µM [inhibitor, single point]",–
CC1=C[C@@H]2c3cccc4[nH]cc(c34)C[C@H]2N(C)C1,–,inactive: 1.11%
Cn1nc(-c2ccccc2)nc2c(=O)n(C)c(=O)nc1-2,active: 0.562 µM,–

Structure (SMILES),Potency,"activity, negative = inhibition"
COC/C=C1\CN2C3C[C@@H]1[C@H]1COC4=Nc5cc(OC)c(OC)c(OC)c5[C@@]43C[C@@H]12,–,inactive: -4.13%
COc1cc(-c2nc3ccc(Cl)cn3c2Nc2ccc3c(c2)OCCO3)ccc1O,"inconclusive: 35.5 µM [inhibitor, single point]",–
O=[N+]([O-])c1ccc(NCc2ccccc2)c2nonc12,–,inactive: 174%
CCC12CN3CCN(CC(C3)/C1=N/NC(N)=O)C2,"inconclusive: 0.891 µM [inhibitor, full curve, poor fit]",–
Cc1ccc(OCC(=O)N2CCN(Cc3ccc4c(c3)OCO4)CC2)cc1C,–,inactive: -0.422%
CC(=O)OC1N=C(c2ccccc2)c2cc(C)ccc2NC1=O (stereo not drawn),"inconclusive: 0.447 µM [inhibitor, full curve, poor fit]",–
O=C1NCN(c2ccccc2)C12CCN(C(c1nnnn1Cc1ccccc1)C1CC1)CC2 (stereo not drawn),"inconclusive: 11.2 µM [inhibitor, partial curve]",–
CN(C)P(=O)(C(Cl)=C(N1CCCCC1)N1CCCCC1)N(C)C,"inconclusive: 25.1 µM [inhibitor, single point]",–
COc1ccc(-n2nnnc2C(c2cccc3ccccc23)N2CCC(n3c(=O)[nH]c4ccccc43)CC2)cc1 (stereo not drawn),"inconclusive: 10 µM [inhibitor, partial curve, poor fit]",–
CC(=O)C1CCC2C3CCC4CC(O)CCC4(C)C3C(O)CC12C (stereo not drawn),"inconclusive: 35.5 µM [inhibitor, single point]",–
O=C1NC(=O)N(c2ccccc2)C(=O)/C1=C\C=C\c1ccccc1,active: 7.08 µM,–
C#C[C@]1(O)CC[C@H]2[C@@H]3CCC4=CC(=O)CC[C@]4(C)[C@H]3CC[C@@]21C,–,inactive: -21.9%
[Hg+][c]1ccccc1,active: 0.316 µM,–
Cc1ccc(Cn2nc(C(=O)Nc3ccc(Br)cc3)cc2C)cc1,"inconclusive: 14.1 µM [inhibitor, partial curve, poor fit]",–
CCOC(=O)[C@]12Cc3cc(Cl)ccc3[C@H]1N(Cc1ccccc1)C(=O)c1ccccc12,"inconclusive: 7.08 µM [inhibitor, partial curve]",–
COC(=O)C(O)(c1ccc(N(C)C(=O)c2cccs2)cc1)C(F)(F)F (stereo not drawn),–,inactive: -26.1%
CN1CCN(C(=S)SCC(=O)Nc2ccc(Cl)cc2C(=O)c2ccccc2)CC1,"inconclusive: 17.8 µM [inhibitor, single point]",–
O=C(CCl)c1ccc(O)c(O)c1,"inconclusive: 15.8 µM [inhibitor, single point]",–
Cc1ccc(S(=O)(=O)N2CCCCC2)cc1NC(=O)CSc1ncnc2ccccc12,"inconclusive: 35.5 µM [inhibitor, single point]",–
CC(C)c1ccc(N2C(=O)NC(=O)/C(=C\C=C\c3ccco3)C2=O)cc1,active: 10 µM,–
C=CCn1c(=O)c(C(=O)NCc2ccccc2)c(O)c2ccccc21,"inconclusive: 35.5 µM [inhibitor, single point]",–
